# From PubChem BioAssay AID1477 (National Center for Advancing Translational Sciences (NCATS), 2009)
# In all, about 230,000 compounds went through this assay and fewer than 10 were called active. The inconclusive results got no clear call from the source; some entries with a clear call stand among them for comparison. The call rests on the fitted dose curve; in most records, active means well fitted curve in the direction sought with a large enough effect; inconclusive means small, poorly fitted or top-dose-only effect, or effect the other way, or another doubt; inactive means no such curve, though single readings can be large or run the other way. Potencies of inconclusive entries are left out as doubtful fits.
# Biological target: Runt-related transcription factor 1 (Homo sapiens) + Core-binding factor subunit beta (Homo sapiens) (UniProt Q01196+Q13951)
# UniProt Q01196, sequence (Q01196 whole entry, looked up): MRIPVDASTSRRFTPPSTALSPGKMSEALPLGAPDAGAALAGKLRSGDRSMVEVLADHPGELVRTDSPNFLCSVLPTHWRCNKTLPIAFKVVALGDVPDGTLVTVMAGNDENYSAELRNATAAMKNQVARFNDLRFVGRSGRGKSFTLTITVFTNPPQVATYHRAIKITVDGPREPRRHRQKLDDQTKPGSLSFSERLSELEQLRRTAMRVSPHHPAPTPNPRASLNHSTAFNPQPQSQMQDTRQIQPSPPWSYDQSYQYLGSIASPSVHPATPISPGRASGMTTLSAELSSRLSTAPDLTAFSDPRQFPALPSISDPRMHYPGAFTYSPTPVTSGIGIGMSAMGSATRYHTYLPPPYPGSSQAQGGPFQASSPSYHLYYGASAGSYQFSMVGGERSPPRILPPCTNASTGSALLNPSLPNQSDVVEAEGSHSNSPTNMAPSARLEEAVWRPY
# UniProt Q01196, sequence (Q13951 whole entry, looked up): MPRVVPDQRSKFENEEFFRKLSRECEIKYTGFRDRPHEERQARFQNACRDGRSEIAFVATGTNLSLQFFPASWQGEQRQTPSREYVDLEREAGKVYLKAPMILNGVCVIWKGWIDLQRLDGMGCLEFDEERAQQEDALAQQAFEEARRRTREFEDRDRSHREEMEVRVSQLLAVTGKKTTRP
# Assay: qHTS Assay for Compounds Blocking the Interaction Between CBF-beta and RUNX1 for the Treatment of Acute Myeloid Leukemia; on activity, negative = inhibition: % of control where 0% means no effect
# Details: AlphaScreen CBFb-His/RUNX1-biotin binding, biochemical; activity, negative = inhibition: at 59.8 µM (top of the series) unless noted
# From the text: NIH Chemical Genomics Center [NCGC]
# NIH Molecular Libraries Probe Production centers Network [MLPCN]
# Assay Submitter (PI): Paul Liu
# Core Binding Factor (CBF) abnormalities are associated with 20-25% of all acute myeloid leukemias (AML), of which 5-10% are further sub classified as acute myelomonocytic leukemia with eosinophilia, also known as M4Eo in the FAB classification scheme. This subtype of leukemia is usually associated with chromosome 16 inversion (p13:q22). Chromosome 16 inversion results in formation of the fusion oncogene CBFB-MYH11, which encodes the fusion protein CBF-beta-SMMHC.
# It has been hypothesized that the interference of CBF-beta and RUNX1 binding could have therapeutic implications for patients with CBF mediated leukemias. We developed a CBF-beta and RUNX1 binding assay in AlphaScreenTM format and optimized it for high throughput screening to search for inhibitors. The goal of this project is to screen MLPCN's compound collection (MLSMR) for identifying the inhibitors of the interaction between CBF-beta and RUNX1 proteins as research probes. If these probes work well in the animal models, the ultimate goal of this project is to development a new drug treatment for this disease.
# This assay can not be used to assess how apparent inhibitors interfere with protein binding, and whether inhibitors specifically bind to either protein. Disruption of this protein-protein interaction, through any mechanism, is the intended target activity.
# NCGC Assay Protocol Summary:
# Step, Parameter, Description
# (1) Reagent, 3 uL CBFb-His/RUNX1-biotin mix incubated together for 20 minutes at room temperature (30 nM each)
# (2) Compound or control, 23 nL compound stock solution
# (3) Incubation, 15 minutes at Room temperature
# (4) Reagent, 1 uL 50 ng each of beads (Nickel beads and streptavidin beads)
# (5) Incubation, 90 minutes at Room temperature
# (6) Detection, Excitation=365 nm Emission=440 nm, Envision reader in AlphaScreenTM mode
# Keywords: MLSMR, MLPCN, NIH Roadmap, qHTS, NCGC, Core binding factor, CBF, CBF-beta, Acute myeloid leukemia
SMILES,Potency,"activity, negative = inhibition"
Cc1nnn(C23CC4CC(CC(CC(=O)Nc5ccc(C)c(Cl)c5)(C4)C2)C3)n1,"inconclusive [activator, single point]",–
COCCSc1nnc(NC(=O)Cc2cccs2)s1,"inconclusive [inhibitor, single point]",–
O=c1c2ccccc2nnn1COc1cccc2ccccc12,"inconclusive [activator, single point]",–
O=C1C(NS(=O)(=O)c2cccs2)=C(N2CCN(c3ccccc3)CC2)C(=O)c2ccccc21,–,inactive: -15.3%
O=C(CSc1nnc(-c2ccc3c(c2)OCCO3)o1)N1CCCC1,–,inactive: 5.12%
COc1ccc(C(=O)N/N=C/c2cccc3cccnc23)cc1,"inconclusive [inhibitor, partial curve]",–
Cc1cc(C)n(-c2cccc3cccnc23)n1,"inconclusive [inhibitor, single point]",–
Cc1cccc(N=C2NN=C(c3ccccc3F)CS2)c1C,"inconclusive [inhibitor, single point]",–
C[C@H]1C(c2cccc(Cl)c2)=NN(c2ccccc2)[C@@H]1CO,"inconclusive [activator, partial curve]",–
CCOc1cccc(=O)c2c(C)n(-c3ccc(C(=O)O)cc3)c(C)c12,"inconclusive [inhibitor, single point]",–
S=C(NCc1ccco1)Nc1ccc(Oc2ccccc2)cc1,"inconclusive [inhibitor, single point]",–
COc1ccccc1-c1ccc(SCc2cccc(F)c2)nn1,"inconclusive [activator, single point]",–
Cc1cc(C=O)c(C)n1-c1ccc(Cl)c(C(=O)O)c1,"inconclusive [inhibitor, single point]",–
CCCCCC(=O)NC(Cc1ccc(OC)c([N+](=O)[O-])c1)C(=O)O (configuration not stated),–,inactive: 20.6%
COC(=O)c1ccc(-c2noc(CN(C)CCC3CCCCO3)n2)cc1 (configuration not stated),"inconclusive [inhibitor, single point]",–
O=C1CC(SCCc2nc3ccccc3[nH]2)C(=O)N1c1ccc(Cl)cc1 (configuration not stated),–,inactive: 5.74%
CCOC(=O)/C(C#N)=C/Nc1ccccc1OC(F)(F)F,–,inactive: 0.489%
CC(C)CCOc1ncnc2c1sc1nc3c(cc12)CSC(C)(C)C3,–,inactive: 14.2%
COC(=O)C1=C(C)OC(N)=C(C#N)C1c1c(C)nn(-c2ccccc2)c1Cl (configuration not stated),–,inactive: 6.89%
COc1cccc(Oc2ccc(C(F)(F)F)cc2NC(=O)c2cccc(F)c2)c1,"inconclusive [activator, partial curve]",–
O=C(O)c1ccc(CSc2n[nH]c(-c3ccco3)n2)cc1,–,inactive: -10.8%
COc1ccc(OCCCN2CCCCCC2)cc1,–,inactive: -5.37%
N#Cc1c(-c2cccs2)nc(SCC(=O)c2ccc(Br)cc2)[nH]c1=O,"inconclusive [inhibitor, single point]",–
COc1cccc(C2CC(c3cccs3)=NN2C(=O)CSc2nc3ccccc3o2)c1OC (configuration not stated),–,inactive: -1.49%

SMILES,Potency,"activity, negative = inhibition"
Cc1ccc(NC(=S)NC2CCN(Cc3ccccc3)CC2)cc1C,–,inactive: -2.73%
Nc1cnn(Cc2ccccc2F)c1,"inconclusive [inhibitor, single point]",–
CN1C(=O)c2cccc3c(S(=O)(=O)Nc4ccccn4)ccc1c23,–,inactive: 11%
CCCCC1=CC2=CC(=O)C(C)(OC(=O)CC)C(=O)C2=CN1c1ccccc1 (configuration not stated),"inconclusive [inhibitor, single point]",–
Cc1ccc(CNC(=O)c2ccc(-n3cccc3)cc2)cc1,"inconclusive [inhibitor, partial curve]",–
CC(=O)c1c(C)[nH]c(C(=O)OCC(=O)C(C)(C)C)c1C,–,inactive: 2.19%
COC(=O)c1cccc(NC(=O)c2cccnc2C(=O)O)c1C,"inconclusive [inhibitor, full curve, poor fit]",–
COc1cc(OC)c2c(-c3ccccc3)cc(=O)oc2c1C(CCN1CCOCC1)c1ccc(N(C)C)cc1 (configuration not stated),"inconclusive [inhibitor, single point]",–
Cc1cccc(NC(=O)C2C(c3ccccc3)C2(Cl)Cl)c1 (configuration not stated),"inconclusive [activator, single point]",–
Cc1cccc(OCCn2c(=O)sc3ccccc32)c1,"inconclusive [activator, single point]",–
COc1cccc(CC(=O)N2CCc3nc(-c4ccccc4)c4c(c3C2)CO[C@@H](C)C4)c1,–,inactive: 3.62% [at 13.1 µM]
CC(C)C(=O)c1c(C(C)C)nn2ccccc12,inactive,–
CCOC(=O)C(CCCCOc1cccc(CC)c1)C(=O)OCC,"inconclusive [activator, single point]",–
COc1ccc(C(=O)/C=C/C(=O)N(CC(=O)NC2CCCCC2)Cc2cccs2)c(O)c1,–,inactive: -9.74%
CCOC(=O)c1c(C)[nH]c(C2=NNC(=Nc3cccc(Cl)c3)SC2)c1C,"inconclusive [inhibitor, partial curve]",–
CCOC(=O)c1c(C)nc2sc(C(=O)Nc3ccc(C(C)=O)cc3)c(N)c2c1-c1ccc(OC)cc1,"inconclusive [activator, partial curve]",–
CCOC(=O)c1oc2ccccc2c1CN1CCCCC1,"inconclusive [activator, partial curve]",–
Cc1cc(-c2ccccc2)nc2cc(C(=O)N(Cc3ccccc3)Cc3ccccc3)nn12,"inconclusive [activator, partial curve]",–
Cc1[nH]c2ccccc2c1/C=N/Nc1ccccn1,"inconclusive [inhibitor, single point]",–
Nc1nonc1C(=O)N/N=C/c1cc(Br)ccc1O,"inconclusive [inhibitor, single point]",–
O=C(CCN1CCOCC1)NNC(=S)NC(=O)c1ccc(Br)cc1,–,inactive: -6.68%
Cc1cc2cc(CNC(=O)Cc3ccc([N+](=O)[O-])cc3)ccc2n1C,"inconclusive [inhibitor, single point]",–
O=C(CCc1nc(-c2ccccc2)no1)NCCc1ccccc1,–,inactive: 3.36%
